We go through 19 sequences from publication PMC4081100.

Holding throughout (test): universal protein binding microarray (PBM)
Common to all, as to details: transcription factors of Arabidopsis thaliana; high values mean tight binding; most listed sequences are background and not binding sites; double strand, one strand shown

One experiment concerns the target T1, GST-ATAF1 NAC domain (UniProt Q39013).
T1 sequence: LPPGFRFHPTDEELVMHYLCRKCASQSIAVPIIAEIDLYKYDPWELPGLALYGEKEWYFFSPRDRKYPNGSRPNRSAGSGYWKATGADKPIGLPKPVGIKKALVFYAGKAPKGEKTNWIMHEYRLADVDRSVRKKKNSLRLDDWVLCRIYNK

In experiment [1] the target is T2, GST-ANAC092(1-285) full length (UniProt Q9FKA0).
T2 sequence: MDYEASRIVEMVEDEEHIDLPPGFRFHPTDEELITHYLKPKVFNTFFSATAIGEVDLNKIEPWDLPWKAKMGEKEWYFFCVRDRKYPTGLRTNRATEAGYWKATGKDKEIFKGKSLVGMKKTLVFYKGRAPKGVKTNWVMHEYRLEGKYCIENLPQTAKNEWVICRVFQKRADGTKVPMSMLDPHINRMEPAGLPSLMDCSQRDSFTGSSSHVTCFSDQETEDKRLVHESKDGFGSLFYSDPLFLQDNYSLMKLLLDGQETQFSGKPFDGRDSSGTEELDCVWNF

For a further experiment, the target named is T3, GST-NST2(1-184) (UniProt Q9M274).
T3 sequence: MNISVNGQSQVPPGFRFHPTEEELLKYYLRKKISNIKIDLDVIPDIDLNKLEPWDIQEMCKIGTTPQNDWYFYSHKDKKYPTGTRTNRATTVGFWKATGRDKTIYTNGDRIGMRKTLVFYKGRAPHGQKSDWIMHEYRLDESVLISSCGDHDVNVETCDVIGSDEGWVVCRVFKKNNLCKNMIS

The target in the next experiment is T4, GST-NTL8 NAC domain (UniProt Q9XIN7).
T4 sequence: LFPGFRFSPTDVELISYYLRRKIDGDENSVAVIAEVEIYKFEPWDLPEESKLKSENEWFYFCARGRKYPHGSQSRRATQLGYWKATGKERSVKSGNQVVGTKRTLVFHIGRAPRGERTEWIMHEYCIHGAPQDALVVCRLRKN

The target of a further experiment is T5, GST-VND7 NAC domain (UniProt Q9C8W9).
T5 sequence: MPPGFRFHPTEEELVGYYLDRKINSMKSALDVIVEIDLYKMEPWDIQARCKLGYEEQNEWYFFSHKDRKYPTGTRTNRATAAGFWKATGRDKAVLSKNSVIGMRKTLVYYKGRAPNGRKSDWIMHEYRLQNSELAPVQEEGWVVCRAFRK

The target in experiment [2] is T6, GST-VOZ2 (Arabidopsis thaliana) (UniProt Q9SLB9).
T6 sequence: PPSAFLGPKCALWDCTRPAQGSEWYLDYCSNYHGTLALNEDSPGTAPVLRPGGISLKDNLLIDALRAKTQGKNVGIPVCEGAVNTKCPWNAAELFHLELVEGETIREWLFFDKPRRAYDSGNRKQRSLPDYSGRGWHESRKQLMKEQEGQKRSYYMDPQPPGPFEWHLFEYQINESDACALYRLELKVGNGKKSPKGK

The target of another experiment is GST-WRKY1(266-371) (UniProt Q9SI37).
Another experiment concerns the target T7, GST-NAP(1-166) (UniProt O49255).
T7 sequence: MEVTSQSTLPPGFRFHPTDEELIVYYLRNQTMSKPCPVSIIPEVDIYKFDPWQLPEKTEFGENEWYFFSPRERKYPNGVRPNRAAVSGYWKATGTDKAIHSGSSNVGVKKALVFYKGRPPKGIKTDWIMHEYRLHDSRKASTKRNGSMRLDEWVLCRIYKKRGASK

In another experiment the target is T8, GST-ANAC092(1-176) (UniProt Q9FKA0).
T8 sequence: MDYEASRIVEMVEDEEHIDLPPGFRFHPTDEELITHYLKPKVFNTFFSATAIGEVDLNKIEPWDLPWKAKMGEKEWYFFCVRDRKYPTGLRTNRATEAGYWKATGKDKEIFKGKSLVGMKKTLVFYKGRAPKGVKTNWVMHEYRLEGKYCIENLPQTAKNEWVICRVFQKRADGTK

Another experiment deals with T9, GST-ANAC019 NAC domain (UniProt Q9C932).
T9 sequence: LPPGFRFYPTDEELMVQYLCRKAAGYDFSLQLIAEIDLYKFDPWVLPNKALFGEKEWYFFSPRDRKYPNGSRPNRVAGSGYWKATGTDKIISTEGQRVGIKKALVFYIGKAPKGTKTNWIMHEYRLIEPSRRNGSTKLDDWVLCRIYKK

The next experiment has as its target GST-NTL6(1-168) (UniProt Q9SCK6).
The target in the next experiment is T10, GST-ANAC055(1-171) (UniProt Q9LDY8).
T10 sequence: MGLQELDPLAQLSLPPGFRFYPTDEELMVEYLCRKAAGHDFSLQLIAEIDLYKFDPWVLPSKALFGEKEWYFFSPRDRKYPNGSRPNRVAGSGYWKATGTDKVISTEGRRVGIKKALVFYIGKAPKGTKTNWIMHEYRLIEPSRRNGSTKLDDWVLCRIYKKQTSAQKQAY

The list shows a part of the results, in another mix than the full data. For part of these data: At the low end of the ranking, values are background and their order means little. The list shows a part of the results. For part of these data: Construct or isoform of the protein are uncertain.

As to TACGCAAA, the binding signal amounted to 0.323 E-score in the experiment with GST-ATAF1 NAC domain; 0.469 E-score in [1]; 0.393 E-score in the experiment with GST-NST2(1-184); 0.0978 E-score in the experiment with GST-NTL8 NAC domain; 0.334 E-score with GST-VND7 NAC domain; 0.191 E-score in experiment [2]. Also, the binding signal with GST-WRKY1(266-371) was -0.0292 E-score.
Take CACACGCA: the binding signal amounted to 0.47 E-score in experiment [1]; 0.375 E-score with GST-NAP(1-166); 0.353 E-score with GST-VND7 NAC domain; 0.0898 E-score in experiment [2]; 0.0271 E-score with GST-WRKY1(266-371).
In the case of AAAAGTCA, the binding signal in the experiment with GST-ANAC092(1-176) is 0.142 E-score; with GST-ANAC019 NAC domain, 0.185 E-score; in the experiment with GST-NAP(1-166), 0.08 E-score; with GST-NST2(1-184), 0.274 E-score; with GST-NTL8 NAC domain, 0.128 E-score; in the experiment with GST-VND7 NAC domain it was 0.122 E-score. Further, the binding signal in [2] worked out at 0.0755 E-score.
Regarding CACACGTC, the binding signal with GST-NTL6(1-168) is -0.0564 E-score; with GST-NTL8 NAC domain, -0.134 E-score; with GST-VND7 NAC domain it was 0.176 E-score; in experiment [2] it was 0.0908 E-score; in the experiment with GST-WRKY1(266-371) it was -0.0583 E-score.
Consider ACGTAAAG, for which the binding signal turned out to be 0.402 E-score in the experiment with GST-ANAC092(1-176), 0.255 E-score in the experiment with GST-NAP(1-166), 0.283 E-score with GST-VND7 NAC domain and 0.143 E-score in [2].
Turning to CTTGACTA, the binding signal is -0.0302 E-score with GST-ANAC092(1-176); -0.0211 E-score with GST-NTL6(1-168); 0.0162 E-score in experiment [1]; -0.0927 E-score with GST-NAP(1-166); 0.0949 E-score in the experiment with GST-NTL8 NAC domain; 0.0272 E-score with GST-VND7 NAC domain. Also, the binding signal in experiment [2] was 0.0134 E-score.
ATAAGGAA: the binding signal with GST-ANAC019 NAC domain was -0.0129 E-score; with GST-NAP(1-166) it was 0.0352 E-score; with GST-NTL8 NAC domain, 0.332 E-score; in the experiment with GST-VND7 NAC domain it was 0.0381 E-score; in experiment [2], -0.0827 E-score; in the experiment with GST-WRKY1(266-371), 0.00406 E-score.
In the case of CGAAGTAA, the binding signal in the experiment with GST-ANAC019 NAC domain came out at 0.128 E-score; in the experiment with GST-ANAC055(1-171) it was 0.143 E-score; with GST-NAP(1-166) it was 0.00983 E-score; with GST-NST2(1-184), 0.223 E-score; with GST-VND7 NAC domain, 0.19 E-score; in experiment [2], 0.0794 E-score. For the same sequence, the binding signal with GST-WRKY1(266-371) is -0.0222 E-score.
In the case of AACGTGTA, the binding signal is 0.265 E-score with GST-NST2(1-184); -0.0491 E-score with GST-NTL8 NAC domain; 0.0615 E-score with GST-VND7 NAC domain; 0.0622 E-score in experiment [2]; -0.155 E-score with GST-WRKY1(266-371).
In the case of CAGTCAAC, the binding signal with GST-ANAC092(1-176) is 0.0753 E-score; with GST-NTL6(1-168), -0.0395 E-score; in the experiment with GST-ANAC019 NAC domain, -0.00831 E-score; in the experiment with GST-ANAC055(1-171) it was -0.00077 E-score; in experiment [1], -0.0544 E-score; with GST-NAP(1-166), -0.0614 E-score. Moreover, the binding signal in the experiment with GST-NST2(1-184) is 0.00533 E-score; with GST-NTL8 NAC domain, -0.00947 E-score; in the experiment with GST-VND7 NAC domain it was -0.0423 E-score; in [2], -0.0285 E-score.
As for GTTTCCTA, the binding signal worked out at 0.118 E-score in the experiment with GST-NAP(1-166); 0.169 E-score with GST-NST2(1-184); 0.404 E-score with GST-NTL8 NAC domain; 0.0417 E-score with GST-VND7 NAC domain; 0.0891 E-score in [2]; 0.0369 E-score with GST-WRKY1(266-371).
On to GCGTGTCA, for which the binding signal in the experiment with GST-NTL6(1-168) is -0.0922 E-score; with GST-NST2(1-184), 0.0663 E-score; with GST-NTL8 NAC domain, -0.12 E-score; with GST-VND7 NAC domain, 0.189 E-score; in experiment [2] it was 0.064 E-score.
On to CACGCTAC, for which the binding signal with GST-ANAC092(1-176) is 0.46 E-score; in the experiment with GST-NTL6(1-168), -0.0636 E-score; with GST-NAP(1-166), 0.0384 E-score; with GST-NST2(1-184) it was 0.298 E-score; with GST-NTL8 NAC domain, 0.00465 E-score; in [2], 0.0564 E-score. The sequence further returned a binding signal with GST-WRKY1(266-371) of -0.0318 E-score.
For AATTCCGT, the binding signal with GST-ANAC092(1-176) is 0.274 E-score; in the experiment with GST-ANAC019 NAC domain, 0.456 E-score; in the experiment with GST-ATAF1 NAC domain, 0.358 E-score; with GST-NST2(1-184), 0.179 E-score; in [2], 0.0504 E-score; with GST-WRKY1(266-371), -0.0534 E-score.
As to GCGTGTGA, the binding signal with GST-ANAC092(1-176) is 0.374 E-score; with GST-NTL6(1-168), -0.0187 E-score; with GST-NST2(1-184), 0.189 E-score; with GST-NTL8 NAC domain, -0.0762 E-score; in experiment [2] it was 0.0588 E-score; in the experiment with GST-WRKY1(266-371), -0.00742 E-score.
Regarding AATTGCGT, the binding signal with GST-ANAC092(1-176) worked out at 0.451 E-score; in the experiment with GST-NTL6(1-168), 0.0568 E-score; with GST-ANAC019 NAC domain, 0.394 E-score; in [1], 0.46 E-score; with GST-NAP(1-166), 0.432 E-score; with GST-NST2(1-184), 0.294 E-score. Also, the binding signal with GST-NTL8 NAC domain was 0.0923 E-score; in [2] it was 0.25 E-score; in the experiment with GST-WRKY1(266-371), -0.0635 E-score.
Regarding AGATTGAC, the binding signal is 0.135 E-score with GST-ANAC092(1-176); -0.158 E-score with GST-ANAC019 NAC domain; 0.0846 E-score with GST-ATAF1 NAC domain; -0.0172 E-score with GST-NAP(1-166); -0.0806 E-score with GST-NTL8 NAC domain; 0.0393 E-score in experiment [2]. The binding signal in the experiment with GST-WRKY1(266-371) was 0.457 E-score.
Regarding CACGGCAG, the binding signal with GST-ANAC092(1-176) is 0.39 E-score; in the experiment with GST-NTL6(1-168), -0.0946 E-score; with GST-NAP(1-166) it was 0.227 E-score; with GST-NST2(1-184), 0.0722 E-score; with GST-NTL8 NAC domain, 0.0421 E-score; in experiment [2], -0.0116 E-score. For the same sequence, in the experiment with GST-WRKY1(266-371), the binding signal is -0.0404 E-score.
In the case of TCACGGAA, the binding signal is 0.363 E-score with GST-ANAC092(1-176); -0.00634 E-score in the experiment with GST-NTL6(1-168); 0.383 E-score with GST-NAP(1-166); 0.0355 E-score with GST-NST2(1-184); 0.0193 E-score with GST-NTL8 NAC domain; -0.0377 E-score in experiment [2]. In the experiment with GST-WRKY1(266-371), this sequence returned a binding signal of -0.0667 E-score.
